The labels stand for the following.
B1: TPR 5TU (parent)
chain: GGAUCUUCUCGAUCUAACAAAAAAGACAAAUCUGCCACAAAGCUUGAGAGCAUCUUCGGAUGCAGAGGCGGCAGCCUUCGGUGGCGCGAUAGCGCCAACGUUCUCAACUAUGACACGCAAAACGCGUGCUCCGUUGAAUGGAGUUUAUCAUG

This note sets out measurements from the RNAGym collection of RNA variant scans (doi:10.1073/pnas.2313332121).

This sample is rich in variants without activity.

Variants of B1 are the subject of this data set. Nature of the data set: polymerase ribozyme fitness, log enrichment relative to wild type (log ratio); higher = more active; in vitro selection for triplet polymerase activity. An outline of the steps:
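Only genotypes with ≥10 input reads and ≥1 read per output were kept after Illumina sequencing of input and output libraries. These libraries were PCR-built, transcribed mutants of each subunit of a heterodimeric triplet polymerase ribozyme, each put through one triplicate in vitro selection round with frozen incubation at −7 °C, gel excision of extended constructs, streptavidin-bead capture and RT-PCR. Fitness is a logarithmic ratio of genotype enrichment to wild-type enrichment, from inverse-variance-weighted replicate averages, with the logarithm in base 2.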
Regarding GGAUCUUCUCGAUCUAACAAAAAAGACAAAUCUGCCACAAAGCUUGAGAGCAUCUUCAGAUGCAGAGGCGGCAGCCUUCGGUGGCGCGAUAGCGCCAACGUUCUCAACUAUGACACGCAAAACGCGUGCUCCGUUGAAUGGAGUUGAUCAUG [G58A U146G], the “polymerase ribozyme fitness (log ratio)” value worked out at 0.231.
In the case of GGAUCUUCUCGAUCUAACAAAAAAGACAAAUCUGCCACAAAGCUUGAGAGCAUCUUCCGAUGCAGGGGCGGCAGCCUUCGGUGGCGCGAUAGCGCCAACGUUCUCAACUAUGACACGCAAAACGCGUGCUCCGUUGAAUUGAGUUUAUCAUG [G58C A66G G140U], the “polymerase ribozyme fitness (log ratio)” value is at most -4.2.
In the case of GGAUCUUCUCGAUCUAACAAAAAAGACAAAUCUGCCACAAAGCUUGAGAGCAUCUUCCGGUGCGGAGGCGGCAGCCUUCGGUGGCGCGAUAGCGCCAACGUUCUCAACUAUGACACGCAAAACGCGUGCUCCGAUGAAUGGAGUUUAUCAUG [G58C A60G A64G U134A] it was at most -4.2.
Take GGAUCUUCUCGAUCUAACAAAAAAGACAAAUCUGCCACAAAGCUUGAGAGCAUCUUCAUAUCCAGAUGCGGCUGCCUUCGGUGGCGCGAUAGCGCAAACGUUCUCAACUAUGACACGCAAAACGCGUGCGCCGUUGAUUGGAGUUUAUCGUG [G58A G59U G62C G67U A73U C96A U130G A138U A150G]: the “polymerase ribozyme fitness (log ratio)” value was at most -4.2.
In the case of GGAUCUUCUCGAUCUAACAAAAAAGACAAAUCUGCCACAAAGCUUGAGAGCAUCUUCAGAUGCAGAGGCGGCAGCCUUCGGUUGCGCGAUAGCGCCAACGUUCUCAACUAUGACACGCAAAACGCGUGCUCCGUUGAAUGGAGUUUAUCAUG [G58A G83U] it was 0.174.
The result for GGAUCUUCUCGAUCUAACAAAAAAGACAAAUCUGCCACAAAGCUUGAGAGCAUCUUCCGAUGCAGAGGCGGCAGCCUUCGGUGGCGCGGUAGCGCCAACGUUCUCAACUAUGACACGCAAAACGCGUGCUCCGUUGAAUGGAGUUUAUCAUG [G58C A89G] reads -0.995; that for GGAUCUUCUCGAUCUAACAAAAAAGACAAAUCUGCCACAAAGCUUGAGAGCAUCUUCCGAUGCGAAGGCGACAGCCUUCGGUGGCGCGAUAGCGUCAACGGUCUCAACUAUGACACGCAAAACGCGUGCUCCGUUGAAUGGAGUUUAUCAUG [G58C A64G G65A G71A C95U U101G], at most -4.2.
The result for GGAUCUUCUCGAUCUAACAAAAAAGACAAAUCUGCCACAAAGCUUGAGAGCAUCUUCCGAUGCAGCGGCGGCAGCCUUCGGUGGCGGGAUAGCGCCAACGUUCUCAACUAUGACACGCAAAACGCGUGCUCCGUGGAAUGGAGCUUAUCAUG [G58C A66C C87G U135G U144C] reads at most -4.2; that for GGAUCUUCUCGAUCUAACAAAAAAGACAAAUCUGCCACAAAGCUUGAGAGCAUCUUCCGAUGCAGAGGCGGCAGCCUUCGGUGGCGCGAUAGCGCCAACGUUCUCAACUAUGACUCGCAAAACGCGCGCUCCGUUGAAUGGAGGUUAUCAUG [G58C A115U U127C U144G], 0.143; that for GGAUCUUCUCGAUCUAACAAAAAAGACAAAUCUGCCACAAAGCUUGAGAGCAUCUUCAGAUGCAGAGGCGGCAGCCUUCGGCGGCGCGAUAGCGCCAACGUUCUCAACUAUGACACGCAAAACGCGUGCUCCGUUGAAUGGAGUUUCUGAUG [G58A U82C A147C C149G], at most -4.2.
GGAUCUUCUCGAUCUAACAAAAAAGACAAAUCUGCCACAAAGCUUGAGAGCAUCUUCCGAUGCAGCGGCGGCAGCCUUCGGUGGCGCGAUAGAGCCAACGUUCUCAACUAUGACACGCAAAACGCGUGCUCCGUUGAAUGGAGUUUAUCAUG [G58C A66C C93A]: the “polymerase ribozyme fitness (log ratio)” value was at most -4.2.
The result for GGAUCUUCUCGAUCUAACAAAAAAGACAAAUCUGCCACAAAGCUUGAGAGCAUCUUCAGAAGCAGAGGCGGCAGCCUUCGGUGGCGCGAUAGCGCCAACGUUCUCAGCUAUGACACGGGAAACGCGUGCUCCGUUGAAUGGAGUUUAUCAUG [G58A U61A A107G C118G A119G] reads at most -4.2; that for GGAUCUUCUCGAUCUAACAAAAAAGACAAAUCUGCCACAAAGCUUGAGAGCAUCUUCAGAUGCAGAGGCGGCAGCCUUCGGUGGCGCGAUAGCCCCAACGUUCUCAACUAUGACACGCAAAACGCGUGCUCCGUUGAAUGGAGUUUAUCAUG [G58A G94C], -0.674; that for GGAUCUUCUCGAUCUAACAAAAAAGACAAAUCUGCCACAAAGCUUGAGAGCAUCUUCAGAUGCAGAGGCGGCAGCCUUCGGUGGCGCGAUAGCACCAACGUUCUCAACUAUGACACGCAAAACGCGUGCUCCGUUGAAUGGAGUUUAUCAUG [G58A G94A], -0.945.
Take GGAUCUUCUCGAUCUAACAAAAAAGACAAAUCUGCCACAAAGCUUGAGAGCAUCUUCCGAUGCAGAGGCGGCGGCCUUCGGUGGUGCGCUAGCGCCAACGUUCUCAACUAUGACACGCAAAACGCGGGCUCCGUUGAAUGGAGCUUAUCAUG [G58C A73G C85U A89C U127G U144C]: the “polymerase ribozyme fitness (log ratio)” value was at most -4.2.
In the case of GGAUCUUCUCGAUCUAACAAAAAAGACAAAUCUGCCACAAAGCUUGAGAGCAUCUUCCGAUGCAGUGGCGGCAGCCUUCGGUGGCGCGAUAGUGCCAACGUUCUCAACUAUGACACGCAAAACGCGUGCUCCGUUGAAUGGAAUUUAUCAUG [G58C A66U C93U G143A] it was at most -4.2; in that of GGAUCUUCUCGAUCUAACAAAAAAGACAAAUCUGCCACAAAGCUUGAGAGCAUCUUCCGCUGCAGAGGCGGCAGCCUUCGGUGGCGCGAUUGCGCCAACGUUCUCAACUAUGACCCGCAAAACGCGUGCUCCGUUGAAUGGAGUUUAGCAUG [G58C A60C A91U A115C U148G], at most -4.2.
In the case of GGAUCUUCUCGAUCUAACAAAAAAGACAAAUCUGCCACAAAGCUUGAGAGCAUCUUCAGAUGCAGAGGCGCCAGCCUUCGGUGGCGCGAUAGCGCCAAUGUUCUCAACUAUGACACGGAAAAGGUGUGCUCCGUUGAUUGGAGAUUAUCAUG [G58A G71C C99U C118G C123G C125U A138U U144A] it was at most -4.2; in that of GGAUCUUCUCGAUCUAACAAAAAAGACAAAUCUGCCACAAAGCUUGAGAGCAUCUUCCGGUGCAGAGGCGGCAGUCUUCGGUGGCGCGAUAGCGCCAACGUUCUCAACUAUGACACGCAAAACGCGUGCUCCGUUGAAUGGAGUUUAUCAUG [G58C A60G C75U], 0.32.
